About 2,200 (0.71%) of roughly 310,000 compounds showed an effect of 50% or more. Effects have a minus sign here. The list shows a part of the results.
Each molecule was assayed against human ether-à-go-go-related gene (hERG) potassium channel (human, UniProt Q12809) (assay: primary screen, population patch clamp on CHO cells stably expressing hERG).
Sequence of human ether-à-go-go-related gene (hERG) potassium channel (Q12809 whole entry, looked up): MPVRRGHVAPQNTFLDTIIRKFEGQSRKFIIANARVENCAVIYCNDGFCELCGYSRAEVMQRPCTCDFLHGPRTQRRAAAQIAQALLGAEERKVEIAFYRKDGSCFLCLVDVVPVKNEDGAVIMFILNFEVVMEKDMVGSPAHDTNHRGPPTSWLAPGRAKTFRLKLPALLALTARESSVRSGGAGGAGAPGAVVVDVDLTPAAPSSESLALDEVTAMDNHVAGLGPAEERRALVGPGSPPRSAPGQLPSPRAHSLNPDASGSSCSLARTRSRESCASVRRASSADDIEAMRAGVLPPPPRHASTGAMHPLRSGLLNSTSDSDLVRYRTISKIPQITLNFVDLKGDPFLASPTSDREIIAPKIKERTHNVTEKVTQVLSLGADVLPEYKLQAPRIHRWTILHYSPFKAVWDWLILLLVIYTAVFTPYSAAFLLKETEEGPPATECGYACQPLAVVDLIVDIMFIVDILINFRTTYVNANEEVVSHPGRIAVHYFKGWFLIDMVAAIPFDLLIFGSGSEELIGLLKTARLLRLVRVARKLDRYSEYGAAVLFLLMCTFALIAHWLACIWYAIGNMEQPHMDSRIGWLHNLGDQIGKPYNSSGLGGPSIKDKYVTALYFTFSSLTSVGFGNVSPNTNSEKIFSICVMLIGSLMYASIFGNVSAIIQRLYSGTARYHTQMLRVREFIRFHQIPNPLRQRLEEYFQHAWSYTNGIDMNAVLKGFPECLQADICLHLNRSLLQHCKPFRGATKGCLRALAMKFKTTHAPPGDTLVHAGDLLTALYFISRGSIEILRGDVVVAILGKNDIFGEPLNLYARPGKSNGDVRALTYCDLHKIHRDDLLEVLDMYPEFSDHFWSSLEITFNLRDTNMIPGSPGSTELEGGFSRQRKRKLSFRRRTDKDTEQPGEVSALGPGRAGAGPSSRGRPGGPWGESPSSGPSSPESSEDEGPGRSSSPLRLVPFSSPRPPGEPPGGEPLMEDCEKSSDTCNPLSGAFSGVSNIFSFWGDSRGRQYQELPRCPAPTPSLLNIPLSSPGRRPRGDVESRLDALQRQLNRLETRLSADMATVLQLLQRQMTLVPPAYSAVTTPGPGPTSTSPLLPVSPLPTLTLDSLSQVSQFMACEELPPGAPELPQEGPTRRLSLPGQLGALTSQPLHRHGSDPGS

SMILES	hERG current change (%, negative = inhibition) at 1uM [%]
Cc1ccccc1N1OC2C(=O)N(c3ccc(F)cc3)C(=O)C2C1c1ccccn1 (centres unmarked)	4.69
Cc1nc2c3ccccc3nc(NNC(=O)CCC(=O)NCCN3CCN(c4ccccc4F)CC3)n2n1	6.6
CCN(CC(O)Cn1c2ccccc2c2ccccc21)S(=O)(=O)c1ccc(F)cc1 (centres unmarked)	13.3
CC(=O)Nc1ccc(S(=O)(=O)NCc2cccnc2)cc1	15
NC1=NN(c2cccc(C(=O)O)c2)C(=O)C1	13.1
CC(C)(C)OC(=O)N/N=C/c1cn(-c2ccccc2)nc1-c1cccnc1	6.15
COc1ccc(Cl)cc1NC(=O)CSc1nnc(Cc2ccc(C)cc2)c(=O)[nH]1	3.44
Cc1ccc(Nc2nc(N)nc(CN3CCN(Cc4ccc5c(c4)OCO5)CC3)n2)cc1	-53.4
Cc1ccnc(Sc2ncccc2[N+](=O)[O-])n1	14.4
CCn1c(COc2ccccc2Cl)nnc1SCC(=O)Nc1ncccc1C	5.62
CCOC(=O)c1ccc2c(c1)n(CCO)c(C)[n+]2CC.[I-]	6.24
Cc1ccc(CSCC(=O)N(C)CC(=O)Nc2ccc(C)cc2)cc1	20.9
COc1ccccc1OCCn1c(SCC(=O)O)nc2ccccc21	8.81
CC(OC(=O)C1=COCCO1)C(=O)NC1CCCCC1C (centres unmarked)	14.2
COc1cccc(NC(=O)c2cccc(C(=O)Nc3cccc(OC)c3)n2)c1	17.5
N#Cc1c(NC(=O)CSc2ncn(-c3ccccc3)n2)sc2c1CCCC2	5.4
CCC1=NN(C(=O)c2ccc(Cl)cc2)C(O)(c2ccccc2)C1 (centres unmarked)	12.8
CC(=O)N(C(C)=O)c1nc(-c2ccccc2)cn1/N=C/c1ccccc1	13.2
CCOC(=O)c1cnc2c(OC)cccc2c1N1CCN(c2ccccc2OC)CC1	-0.178
Cc1cc(C)c2nc(N3CCCC(C(=O)N4CCC(C(N)=O)CC4)C3)sc2c1 (centres unmarked)	1.7
O=C(NC(=S)N1CCN(C/C=C/c2ccccc2)CC1)c1ccc(F)cc1	3.26
Cc1ccc(CSc2nnc([C@@H]3CCCN3)o2)cc1.Cl	-0.955
COc1ccc(C)cc1NC(=O)c1ccc(NS(=O)(=O)c2cccs2)cc1	19.5

SMILES	hERG current change (%, negative = inhibition) at 1uM [%]
CCOC(=O)CCCCC(=O)c1[nH]c(=O)[nH]c1CSc1nc(C)cc(=O)[nH]1	19.1
CCOc1ccc(C(=O)CCN2CCOCC2)cc1.Cl	10.9
Cc1[nH]c2ccccc2c1/C=N/NC(=O)CNC(=O)c1cccs1	7.61
CN1C(=O)[C@H]2[C@@H](C3CC3)N3C(=O)CN(CCO)C(=O)[C@@]3(Cc3ccccc3)[C@H]2C1=O	12.3
CCOC(=O)N1CCC(n2c(=S)[nH]c3cc(OCC)c(OCC)cc3c2=O)CC1	2.34
CCOC(=O)C1CCN(C(=O)Nc2ccc3oc(C)nc3c2)CC1	12.9
O=C(CN1C(=O)NC2(CCCC2)C1=O)Nc1ccc(Cl)cc1C(F)(F)F	11.3
Cc1ccc(C(=O)CSc2nc3ccccc3c(=O)n2N)o1	5.69
COc1ccc(Cn2c(C)cc3c(c2=O)C(c2cccs2)C(C#N)=C(N)O3)cc1OC (centres unmarked)	12.5
COc1ccc(C2N(C(C)=O)CCN2S(=O)(=O)c2ccc(C)cc2)cc1 (centres unmarked)	10.8
COc1ccc(CCCC(=O)NCCc2ccccc2)cc1	15.3
COc1ccc(CC2(CO)CCN(Cc3nc(C(C)C)cs3)CC2)cc1	-1.4
O=C1NC2(CCCCC2)N=C1c1ccc(Br)cc1	12.1
CCN(CC(=O)NC1CCS(=O)(=O)C1)S(=O)(=O)c1cc([N+](=O)[O-])ccc1C (centres unmarked)	-2.91
COc1ccc(NC(=O)c2nc3ccccc3s2)cc1	-0.0959
CC(=O)N/C(=N\c1nc(C)cc(C)n1)Nc1ccc(Cl)cc1Cl	9.89
O=C1NC(c2ccccc2Br)=N/C1=C\c1ccco1	15
COc1ccc2c(C#N)c3ccccn3c2c1	4.51
C=COCCNC(=S)N1CCOCCOCCN(C(=S)NCCOC=C)CCOCC1	24.3
CC1CCN(C(=O)CN(CCc2ccccc2)S(C)(=O)=O)CC1	9.89
O=c1[nH]c2ccc(NC(=S)Nc3ccc(Cl)cc3)cc2[nH]1	15.2
O=C(CCc1ccccc1)Nc1ccccc1C(=O)N1CCOCC1	10
O=C(NC(=S)NCc1ccccc1)C1CC1	4.16

SMILES	hERG current change (%, negative = inhibition) at 1uM [%]
COc1ccc(C2N(c3cccc(Cl)c3)C(=O)C3CCCN32)cc1 (centres unmarked)	5.67
CC(C)CNc1ncnc2c1cnn2Cc1ccc(Cl)cc1	18.4
CCOc1ccc(/C=C2\SC(=S)N(CCC(=O)Nc3cccc(C(=O)O)c3)C2=O)cc1	5.05
CCN(CC(=O)NC(C)(C)C)C(=O)COc1c(Cl)cc(Cl)c2ccc(C)nc12	-8.13
CC(C)c1ccc(NC(=O)CCNC(=O)Cn2ccc3ccccc3c2=O)cc1	9.37
COc1ccccc1C(=O)NCCC(=O)Nc1ccc(S(=O)(=O)N2CCCC(C)C2)cc1 (centres unmarked)	9.04
Cc1cc2ccccn2c1C(=O)Nc1ccccc1	1.28
CCOc1ccccc1NC(=O)C1CCCN(S(=O)(=O)c2ccccc2)C1 (centres unmarked)	-10.5
N/C(Cc1ccc(Cl)cc1)=N\OC(=O)Cc1ccc([N+](=O)[O-])cc1	9.45
Cc1cc(O)cc(O)c1C(=O)Cc1ccccc1	3.44
COc1ccc([C@H]2/C=C\CN(C(=O)c3ccc(C)cc3)[C@@H](C)C(=O)N2Cc2ccc(F)cc2)cc1	-6.98
CC(NC(=O)COC(=O)c1cc([N+](=O)[O-])ccc1N1CCOCC1)c1ccc(F)cc1 (centres unmarked)	-12.9
O=C(c1ccccc1)c1nc2ccccc2[nH]c1=O	-6.62
CCOC(=O)c1sc2nc(CSc3ccccc3Cl)[nH]c(=O)c2c1C	11.5
O=C(NCCC(=O)N1CCN(S(=O)(=O)c2ccccc2Cl)CC1)Nc1ccccc1	8.4
CCn1cc(CNC(=O)c2ccc3nc(Cc4ccc(OC)cc4)oc3c2)cn1	16.4
Nc1c(C(=O)N2CCOCC2)sc2nc(N3CCOCC3)c3c(c12)CCCC3	13.4
Cc1noc2ncnc(N3CCCCC3)c12	11.1
O=C(CN1CCN(C(=O)c2ccco2)CC1)Nc1ccc2c(c1)OCCO2	5.79
OCC[n+]1c2ccccc2nc2ccc(N3CCOCC3)cc21.[O-][Cl+3]([O-])([O-])[O-]	1.91
Cc1ccc(C(=O)NCCC(=O)Nc2ccccc2C)cc1	16.4
CC1(C)C2CCC(C2)C1(C)NC(=O)CNCC1CCCCC1.Cl (centres unmarked)	13.8
CC[n+]1c(/C=C2/C=C(C)CC(C)(C)C2)sc2ccc(OC)cc21.Cc1ccc(S(=O)(=O)[O-])cc1	-26

SMILES	hERG current change (%, negative = inhibition) at 1uM [%]
O=C(OCc1nnc(-c2ccccc2)o1)c1cn(-c2ccccc2)nc1-c1ccccc1	-1.95
Cc1cccc(OCc2nc3ccccc3n2C)c1.Cl	13.3
Cc1ccc(OC[C@H](O)[C@H](C)NC(C)C)c2c1CCC2.Cl	6.2
O=S1(=O)CCO[C@H]2Cc3ccccc3[C@H]2N1Cc1ccccc1	10.6
COc1ccc(N2CCN(C(=O)Cc3nn(C)c(=O)c4ccccc34)CC2)cc1	4.97
COc1cc(CN2CCN(C(C)C)C(CCO)C2)ccc1OCc1ccccc1 (centres unmarked)	-0.108
O=C(O)C(Cc1c[nH]c2ccccc12)N1C(=O)c2ccccc2C1=O (centres unmarked)	3.32
Cc1ccsc1/C=N/NC(=O)C(N)=O	7.05
Cc1ccccc1-n1c(-c2ccc(=O)[nH]n2)n[nH]c1=S	16.8
CCOC(=O)NN1C(=O)c2ccccc2NC12CCCC2	-3.87
CCOc1cc(Br)c(C=O)cc1OCC	8.63
Cc1cc(=O)[nH]c(-n2nc(C)c(Oc3ccccc3O)c2C)n1	5.83
CCn1ncc(Br)c1C(=O)Nc1ccc(C(=O)OC(C)C)cc1	21.6
COc1ccc(NC2=CC(=O)CC(c3ccccc3)C2)cc1 (centres unmarked)	10.1
Cn1cnc2cc(OC(=O)c3ccccc3)ccc21	-0.978
CS(=O)(=O)N1N=C(c2cccs2)CC1c1ccc(F)cc1 (centres unmarked)	8.67
Cc1ccccc1C1C(C#N)=C2N=C(N)c3ccccc3N2C2=C1C(=O)CCC2 (centres unmarked)	7
CCCCOC(=O)c1ccc(Nc2ccc([N+](=O)[O-])cn2)cc1	13.1
O=c1c2ccccc2nc2n1C(CSc1ccc(F)cc1)CS2 (centres unmarked)	2.13
CCOC(=O)c1ccc(NC(=O)N2C3CCCC2CC(NC(C)=O)C3)cc1 (centres unmarked)	11.9
